To fix the notation:
T1: UNK ZnF1-3 (human, UniProt Q9C0B0 31-174)
T1 sequence: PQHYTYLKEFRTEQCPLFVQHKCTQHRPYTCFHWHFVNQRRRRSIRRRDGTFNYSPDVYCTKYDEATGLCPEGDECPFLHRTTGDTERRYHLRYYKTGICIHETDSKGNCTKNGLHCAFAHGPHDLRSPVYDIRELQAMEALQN

B1: chr12:25362807:25362808:-_ENSG00000133703_ENST00000311936|hu_hu|motif|central (ssRNA)
RNA: GGGAGUUCUACAGUCCGACGAUCUUUCUUCUUUUUACCAUCUUUGCUCAUCUUUUCUUUAUGUUUUCGAAUUUCUCGAACGGAUGUAUAGAAGGCAUCAUCAACACCCUGUCUUGUCUUUGCUGAUGUUUCAAUAAAAGGAAUCAACAGAGGAUUGAGCAUCA
B2: chr5:71493418:71493419:+_ENSG00000131711_ENST00000296755|hu_hu|FALSE|FALSE (ssRNA)
RNA: GGGAGUUCUACAGUCCGACGAUCUUCUUCAAAAGGACUUUCGGCACCUCUGCCAGAAGCCUUGUCAUCAGCACUUAGAAAACUUUCAUAAGCAGACUCGGAUCCAAUGAGGGGCGGGCUGCGUAAAGGAGACAAAACUUUUUCCAACAGAGGAUUGAGCAUCA
B3: chr2:166765161:166765162:+_ENSMUSG00000002718_ENSMUST00000002790|mus_mus|FALSE|FALSE (ssRNA)
RNA: GGGAGUUCUACAGUCCGACGAUCAGACAAGCAUAUUGCUUCAAACAUGUAGUGAUUGAAAUGAGGUUUACUGGGAUUCUUACUAACAGCCAGCAGCUUCUGUGUGAGCUGCGUGAUGAGAGUGGGGAUAUAGGGGAUGAUGGCCAACAGAGGAUUGAGCAUCA
B4: chr5:137904717:137904718:-_ENSG00000113013_ENST00000297185|hu_mus|FALSE|FALSE (ssRNA)
RNA: GGGAGUUCUACAGUCCGACGAUCAGAAUAGAGUUUUCCAUGAGCCUCAACCCAAGCAUCACCAUUGGAGGCACGGACAAUUUUAAAAGGAACAUUCUUAGUGUCUUUCUGUACUUCAGGGUCAUCAUAUCGUCGUCCAAUAAGCAACAGAGGAUUGAGCAUCA
B5: chr2:69032557:69032558:-_ENSMUSG00000005233_ENSMUST00000005365|mus_mus|FALSE|FALSE (ssRNA)
RNA: GGGAGUUCUACAGUCCGACGAUCAUUGGCAAGAAAAGCUGAAAAAUUGUUGGUCUUCCUGACUUUCUCCUGAAAUUCUGCUAGGCACUCAAGAUGAGGCGAACUGUCGUACACUUCAUAUUCCUUAGCUUCAUUUAUGCUCAUCAACAGAGGAUUGAGCAUCA
B6: chr5:128440902:128440903:+_ENSG00000066583_ENST00000173527|hu_mus|hu_hu_hu_mus_True|18_18 (ssRNA)
RNA: GGGAGUUCUACAGUCCGACGAUCUUGAACGGUGCUGCCAAGUCCUUUGGGGUAUUGUUCCGUUAUGAUAACUGGAAUCCCUAAGAUCCGAGCUCCUUGCAACAGUCUCUGUCCCACGCUAAUAAUAUCCCCAAAGUAUUUGAUCAACAGAGGAUUGAGCAUCA
B7: chr7:65705844:65705845:+_ENSG00000169902_ENST00000304842|hu_mus|hu_hu_hu_mus_False|8_108 (ssRNA)
RNA: GGGAGUUCUACAGUCCGACGAUCAAAAGGAUCUUUAUUACAUAAAUAAGGUGCCGGCUCCCCAUGUUUAACAAUGACCUCCAGAAGGAAGGCUUGCAUGGCAGAAUCUAGCACUUCAUCUGUGACACCAGCCUCAUCCAAGCGCAACAGAGGAUUGAGCAUCA
B8: 21840765_21841110_688_3pUTR_ENSMUSG00000003410_ENSMUST00000003501|mouse|control|control (ssRNA)
RNA: GGGAGUUCUACAGUCCGACGAUCUUGGUCUGCAGUUUGAGGCCAUUGAGGGUGUUGAUGGCUUUGUCUGCAUCAUUGGGGUCAGAGUAGUUCACAAACCCAUAGCCCAGGCUCUGCCCUGUGAUCUUAUCCCGAACCAACUUGCAACAGAGGAUUGAGCAUCA
B9: chr17:62496016:62496017:-_ENSG00000108654_ENST00000581693|hu_mus|FALSE|FALSE (ssRNA)
RNA: GGGAGUUCUACAGUCCGACGAUCCUGAUAACACACAAUAUAAAGAGCAAUUAUGAAAAACAGACAUUUACAUAUACUUCUAAAGUCUUAUUGAGAAUACCCUGUUGGCAUGGGAUAGCCAAUCAUAGGCGCAGCAGCUGCGGUCAACAGAGGAUUGAGCAUCA
B10: chr15:57879074:57879075:-_ENSMUSG00000022361_ENSMUST00000070143|mus_mus|FALSE|FALSE (ssRNA)
RNA: GGGAGUUCUACAGUCCGACGAUCCCAGCUGUCUGUGUGAAGAAAUCAGCAAAUUGCAGCAUUUGGGAAUUGCUAAUAAAGCUAUAGUUAAAAAAUAAAAAGUUUAUCAAAAUGAAAGCAGCAUGCAUAGUCAAGGCUUUAUCACAACAGAGGAUUGAGCAUCA
B11: 193375006_193376780_2445_CDS_ENSG00000198836_ENST00000392438|human|control|control (ssRNA)
RNA: GGGAGUUCUACAGUCCGACGAUCCUUGAGACGAGCCUGCAGAGCCUCUUCCAUAAAAUAAAUAGCUGCAUCCCAUUGCUGUUUAUCAGAUAUGGAUCGGUCUUCCAAAGCAUUGUGUUGAAUAACCCUCAAGCUGUCCUCCGCCAACAGAGGAUUGAGCAUCA
B12: 95940815_95940935_2955_3pUTR_ENSG00000164938_ENST00000448464|human|control|control (ssRNA)
RNA: GGGAGUUCUACAGUCCGACGAUCGAAGUCAAAACGGAAGGGGCAAUAAGGAGAAAGGGGGAAUCUAACUCUUGUUCUAAAGAGACAUUCUGGCACUUCAUCACAGCCAGUAGAAGAACAAUGUAAAACCUCCAUCUCACUACACAACAGAGGAUUGAGCAUCA
B13: 121471587_121472132_1816_CDS_ENSMUSG00000028127_ENSMUST00000029770|mouse|control|control (ssRNA)
RNA: GGGAGUUCUACAGUCCGACGAUCAACACUGUCCCAGCCGCCUUCUCGCUCAAGGAUGUGACCCAGCUGCACAUUGUCCAAGUACUCCUUCAGCACCUGGUCAGAGAUCCCCCUCUUCUUCUGAUCUUCCUUUCCAUCUGGAUACAACAGAGGAUUGAGCAUCA
B14: chr2:160605069:160605070:+_ENSG00000136536_ENST00000409591|hu_mus|FALSE|FALSE (ssRNA)
RNA: GGGAGUUCUACAGUCCGACGAUCAGCCCCAAGGGAGUCACCCUGUGCUUCAAGAUGAACUACUUCAUUUGAAUCUCUUCUGAAAAUAUGAGAUCUAGGUGGUACAUCUGACGUAGACAUUCUUGAAGACUCAUCCCUUCCCUCCAACAGAGGAUUGAGCAUCA
B15: chr14:66974463:66974464:+_ENSMUSG00000022044_ENSMUST00000074523|mus_hu|mus_mus_mus_hu_False|18_48 (ssRNA)
RNA: GGGAGUUCUACAGUCCGACGAUCUUGUAGGACGACUUAUUCAGGGGAUCGGCCAGGAAGCAGGAGCAGAACAAGGACACCAGCGGGAGUUCCUUCAUCUUCUCUUUGUAGGCAGCAAGAGUCAUGUUUCUGGGAUCUGGUGGCCAACAGAGGAUUGAGCAUCA
B16: 56575273_56575393_1438_CDS_ENSMUSG00000013236_ENSMUST00000086828|mouse|control|control (ssRNA)
RNA: GGGAGUUCUACAGUCCGACGAUCCAUGGUGGUGGCGCUGAGCAUGCGGGCCUGAACAUUCCUGGGAGCGCUGGCUGGUGCCUGCUCACCUGUGCGGGUCACCACCGAUUCACUGGGAGGGCCCUGGCCAAUGGAGUUGACAGCCAACAGAGGAUUGAGCAUCA
B17: chr3:148522152:148522153:-_ENSMUSG00000028184_ENSMUST00000106128|mus_mus|FALSE|FALSE (ssRNA)
RNA: GGGAGUUCUACAGUCCGACGAUCGGGUGACGUAUCGUGGUAGUUGGCAUAGUUGAUGAUAGCCUCGCCGCUCUUGAUUCUAGUCCUCAAGUCAAACUUAACAAUGUUUCUGGUUCUUUCCUUGUUAAAGAAGACGGCUCCAUCCAACAGAGGAUUGAGCAUCA
B18: chr22:19452774:19452775:-_ENSG00000070010_ENST00000399523|hu_hu|hu_hu_hu_mus_False|48_108 (ssRNA)
RNA: GGGAGUUCUACAGUCCGACGAUCCUUUUCAUUAUAGUUGAUAGCAAUCACAUCUCCAGUCGUCAGACAGGCGAAGUUUCUCAAUGCGUUUUCUAAUACCGCUUUAGGGUUGGUAAUAUCCAGGAAGUCUGGGCUCUGAGGCUGCAACAGAGGAUUGAGCAUCA
B19: chr5:33170631:33170632:-_ENSMUSG00000054280_ENSMUST00000120129|mus_hu|FALSE|FALSE (ssRNA)
RNA: GGGAGUUCUACAGUCCGACGAUCGGGAUGGCACGGUGUAGACAUCUGCUUUGGUAUGUGACUAACCAAGCUCUUGGUAGGUGCUGUUUCAGGUUCUAAUCGUGUAGGUGCAGACAGAGUACACAAACUGAGAAGUCUGUGCGCCAACAGAGGAUUGAGCAUCA
B20: chr1:244855233:244855234:+_ENSG00000121644_ENST00000302550|hu_mus|hu_hu_hu_mus_True|28_98 (ssRNA)
RNA: GGGAGUUCUACAGUCCGACGAUCCAUCAGAUGGUAGGCAUUGCCUUUAUACUCUUUCCCCAGUUCUUCUACAAUUUUCUCUAUAUCAUCUUCUAGAAAGUCCGUACUCCCUAAAACAACAGCUUCUUUAAAUUUAAAUGUUUCCAACAGAGGAUUGAGCAUCA
B21: chr6:82862619:82862620:-_ENSMUSG00000000627_ENSMUST00000000641|mus_mus|FALSE|FALSE (ssRNA)
RNA: GGGAGUUCUACAGUCCGACGAUCAACCUGCUUGUAAUUUCCUACACACUUUUCUGGGUUCCUUUUGUCAUCCCUCAAUAGCUAGAAUGUUGUGAAGUUCAUUUUAAAUGGAAGCCAAGGAAAGAGGGCUCAGCCUCCACUCCACAACAGAGGAUUGAGCAUCA
B22: chr2:49629323:49629324:+_ENSMUSG00000026764_ENSMUST00000028102|mus_hu|FALSE|FALSE (ssRNA)
RNA: GGGAGUUCUACAGUCCGACGAUCCAUUAUAUAUUUUAGUUCCCAGACAUAAAUCUUGAUAUCUCAAACAACAUUCUCCUAAUUUACCAAUCCACCAUCCUGCAGAUAAAGAUUAUUCAUAUAAACCAUCUGGCUGUUCUCUUACAACAGAGGAUUGAGCAUCA

The other results are listed elsewhere or left out.

This assay concerns the target T1, UNK ZnF1-3. The assay is described as follows: nsRBNS (natural sequence RNA bind-n-seq); RBNS binding buffer (assumed for nsRBNS): 25 mM Tris pH 7.5, 150 mM KCl, 3 mM MgCl2, 0.01% Triton X-100, 500 ug/ml BSA, 20 U/ml SUPERase-In, 4 C; UNK is unkempt and MSI1 is Musashi-1; names of the RNAs are library labels; protein concentration not given here; high values mean tight binding.
For the molecule B1, the binding signal was determined as 0.486 enrichment R. In the case of B2, the binding signal came out at 1.07 enrichment R. The same measure for B3: 1.64 enrichment R. In the case of B4 it was 1.46 enrichment R; in that of B5, 0.878 enrichment R; in that of B6, 0.754 enrichment R. The same measure for B7: 0.727 enrichment R. Molecule B8 displayed a binding signal of 0.714 enrichment R. Molecule B9 displayed a binding signal of 1.11 enrichment R. The same measure for B10: 2.91 enrichment R; for B11: 1.12 enrichment R. Molecule B12 returned a binding signal of 1.47 enrichment R. B13 registered a binding signal of 0.881 enrichment R.

Consider B14, for which the binding signal was 1.23 enrichment R. Consider B15, for which the binding signal turned out to be 2.67 enrichment R.

For B16, the binding signal is 0.716 enrichment R. With B17, the binding signal is 0.568 enrichment R. In the case of B18 it was 0.683 enrichment R. In the case of B19 it was 0.839 enrichment R. For B20, the binding signal was 1.51 enrichment R.

Molecule B21 displayed a binding signal of 0.841 enrichment R. For the molecule B22, the binding signal came to 1.27 enrichment R.

These data come from PMC12136788.
